Experimental data reported in US20170304361A1 (CASE WESTERN RESERVE UNIVERSITY, published 2017).

Target: T1, Type 1 IGF Receptor (IGF-1R)
T1 construct: also called Type 1 insulin-like growth factor receptor; Type 1 IGF-I receptor
Experiment: competitive displacement of radiolabelled tracer; Kd fitted with a heterologous competition model
Protocol: The protocol for assay of receptor-binding activities was as follows. Microtiter strip plates (Nunc Maxisorb) were incubated overnight at 4° C. with AU5 IgG (100 μl/well of 40 mg/ml in phosphate-buffered saline). Binding data were analyzed by a two-site sequential model.

Binder	Kd [nM]
GlyA21 derivative of AspB10, ortho-fluoro-PheB24, GluB29-insulin (T-0347) (ligand, ortho-fluoro-Phenylalanine (2F-Phe) at B24) chain 1: not shown chain 2: not shown	27
GluA8, GlyA21 derivative of AspB10, 2F-PheB24, GluB29-human insulin (T-0348) (ligand, ortho-fluoro-Phenylalanine (2F-Phe) at B24) chain 1: not shown chain 2: not shown	24
GluA8 derivative of AspB10, ortho-fluoro-PheB24, GluB29-insulin (T-0339) (ligand, ortho-fluoro-Phenylalanine (2F-Phe) at B24) chain 1: not shown chain 2: not shown	20

Stronger by Kd, values ahead:

Kd [nM]	Binder
10	GlyA21 derivative of AspB10, 2F-PheB24, LysB28, ProB29-human insulin (T-0346) (ligand, ortho-fluoro-Phenylalanine (2F-Phe) at B24) chain 1: not shown chain 2: FVNQHLCGSDLVEALYLVCGERGFFYTKPT
7	GluA8 derivative of AspB10, 2F-PheB24, LysB28, ProB29-human insulin (T-0338) (ligand, ortho-fluoro-Phenylalanine (2F-Phe) at B24) chain 1: not shown chain 2: FVNQHLCGSDLVEALYLVCGERGFFYTKPT
